This is one part of the list.
Assays:
Test in all cases: glycan array binding signal (z-score within array); higher = stronger binding
Conditions in all cases: glycan notation: IUPAC condensed, linker removed
[1] = biological target: Fuc(a1-2)Gal
How it was run: (§1)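 Glycan array data were curated from 3228 arrays in the Consortium for Functional Glycomics database and kept only where the protein sequence was available. Glycan names were converted to IUPAC-condensed notation, and columns mapping to the same glycan were averaged. The binding signal is a within-array Z-score, averaged across arrays of the same protein sequence at different concentrations or buffers and across linkers. Negative Z-scores can be read as non-binding.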

[2] = biological target: Fuc(a1-2)Gal(b1-3)GalNAc
How it was run: as §1

[3] = biological target: Fuc(a1-2)Gal(b1-3)GalNAc(a1-3)[Fuc(a1-2)]Gal(b1-4)Glc
How it was run: as §1

[4] = biological target: Fuc(a1-2)Gal(b1-3)GalNAc(a1-3)[Fuc(a1-2)]Gal(b1-4)GlcNAc
How it was run: as §1

[5] = biological target: Fuc(a1-2)Gal(b1-3)GalNAc(b1-3)Gal
How it was run: as §1

[6] = biological target: Fuc(a1-2)Gal(b1-3)GalNAc(b1-3)Gal(a1-4)Gal(b1-4)Glc
How it was run: as §1

[7] = biological target: Fuc(a1-2)Gal(b1-3)GalNAc(b1-4)[Neu5Ac(a2-3)]Gal(b1-4)Glc
How it was run: as §1

[8] = biological target: Fuc(a1-2)Gal(b1-3)GlcNAc
How it was run: as §1

[9] = biological target: Fuc(a1-2)Gal(b1-3)GlcNAc(b1-2)Man(a1-3)[Fuc(a1-2)Gal(b1-3)GlcNAc(b1-2)Man(a1-6)]Man(b1-4)GlcNAc(b1-4)GlcNAc
How it was run: as §1

[10] = biological target: Fuc(a1-2)Gal(b1-3)GlcNAc(b1-2)Man(a1-3)[Fuc(a1-2)Gal(b1-3)GlcNAc(b1-2)Man(a1-6)]Man(b1-4)GlcNAc(b1-4)[Fuc(a1-6)]GlcNAc
How it was run: as §1

[11] = biological target: Fuc(a1-2)Gal(b1-3)GlcNAc(b1-3)Gal(b1-4)Glc
How it was run: as §1

[12] = biological target: Fuc(a1-2)Gal(b1-3)GlcNAc(b1-3)GalNAc
How it was run: as §1

[13] = biological target: Fuc(a1-2)Gal(b1-3)GlcNAc(b1-3)[Fuc(a1-2)Gal(b1-3)GlcNAc(b1-6)]GalNAc
How it was run: as §1

[14] = biological target: Fuc(a1-2)Gal(b1-3)GlcNAc(b1-3)[Gal(b1-4)GlcNAc(b1-6)]Gal(b1-4)Glc
How it was run: as §1

[15] = biological target: Fuc(a1-2)Gal(b1-3)GlcNAc(b1-3)[Neu5Ac(a2-6)Gal(b1-4)GlcNAc(b1-6)]Gal(b1-4)Glc
How it was run: as §1

[16] = biological target: Fuc(a1-2)Gal(b1-3)GlcNAc6S
How it was run: as §1

[17] = biological target: Fuc(a1-2)Gal(b1-3)[Fuc(a1-4)]GlcNAc
How it was run: as §1

[18] = biological target: Fuc(a1-2)Gal(b1-3)[Fuc(a1-4)]GlcNAc(b1-2)Man(a1-3)[Fuc(a1-2)Gal(b1-3)[Fuc(a1-4)]GlcNAc(b1-2)Man(a1-3)]Man(b1-4)GlcNAc(b1-4)GlcNAc
How it was run: as §1

[19] = biological target: Fuc(a1-2)Gal(b1-3)[Fuc(a1-4)]GlcNAc(b1-2)Man(a1-3)[Fuc(a1-2)Gal(b1-3)[Fuc(a1-4)]GlcNAc(b1-2)Man(a1-6)]Man(b1-4)GlcNAc(b1-4)[Fuc(a1-6)]GlcNAc(b1-4)[Fuc(a1-6)]GlcNAc
How it was run: as §1

[20] = biological target: Fuc(a1-2)Gal(b1-3)[Fuc(a1-4)]GlcNAc(b1-3)[Fuc(a1-3)[Gal(b1-4)]GlcNAc(b1-6)]Gal(b1-4)Glc
How it was run: as §1

[21] = biological target: Fuc(a1-2)Gal(b1-3)[Fuc(a1-4)]GlcNAc(b1-3)[Gal(b1-4)GlcNAc(b1-6)]Gal(b1-4)Glc
How it was run: as §1

[22] = biological target: Fuc(a1-2)Gal(b1-4)Glc
How it was run: as §1

[23] = biological target: Fuc(a1-2)Gal(b1-4)Glc6S
How it was run: as §1

[24] = biological target: Fuc(a1-2)Gal(b1-4)GlcNAc
How it was run: as §1

[25] = biological target: Fuc(a1-2)Gal(b1-4)GlcNAc(b1-2)Man
How it was run: as §1

[26] = biological target: Fuc(a1-2)Gal(b1-4)GlcNAc(b1-2)Man(a1-3)[Fuc(a1-2)Gal(b1-4)GlcNAc(b1-2)Man(a1-6)]Man(b1-4)GlcNAc(b1-4)GlcNAc
How it was run: as §1

[27] = biological target: Fuc(a1-2)Gal(b1-4)GlcNAc(b1-2)Man(a1-3)[Fuc(a1-2)Gal(b1-4)GlcNAc(b1-2)Man(a1-6)]Man(b1-4)GlcNAc(b1-4)[Fuc(a1-6)]GlcNAc
How it was run: as §1

[28] = biological target: Fuc(a1-2)Gal(b1-4)GlcNAc(b1-2)[Fuc(a1-2)Gal(b1-4)GlcNAc(b1-4)]Man(a1-3)[Fuc(a1-2)Gal(b1-4)GlcNAc(b1-2)Man(a1-6)]Man(b1-4)GlcNAc(b1-4)GlcNAc
How it was run: as §1

[29] = biological target: Fuc(a1-2)Gal(b1-4)GlcNAc(b1-3)Gal(b1-4)GlcNAc
How it was run: as §1

[30] = biological target: Fuc(a1-2)Gal(b1-4)GlcNAc(b1-3)Gal(b1-4)GlcNAc(b1-2)Man(a1-3)[Fuc(a1-2)Gal(b1-4)GlcNAc(b1-3)Gal(b1-4)GlcNAc(b1-2)Man(a1-6)]Man(b1-4)GlcNAc(b1-4)GlcNAc
How it was run: as §1

[31] = biological target: Fuc(a1-2)Gal(b1-4)GlcNAc(b1-3)Gal(b1-4)GlcNAc(b1-3)Gal(b1-4)GlcNAc
How it was run: as §1

[32] = biological target: Fuc(a1-2)Gal(b1-4)GlcNAc(b1-3)GalNAc
How it was run: as §1

[33] = biological target: Fuc(a1-2)Gal(b1-4)GlcNAc(b1-3)[Fuc(a1-2)Gal(b1-4)GlcNAc(b1-6)]GalNAc
How it was run: as §1

[34] = biological target: Fuc(a1-2)Gal(b1-4)GlcNAc(b1-3)[Fuc(a1-3)[Gal(b1-4)]GlcNAc(b1-6)]Gal(b1-4)Glc
How it was run: as §1

[35] = biological target: Fuc(a1-2)Gal(b1-4)GlcNAc(b1-6)GalNAc
How it was run: as §1

[36] = biological target: Fuc(a1-2)Gal(b1-4)GlcNAc6S
How it was run: as §1

[37] = biological target: Fuc(a1-2)Gal(b1-4)[Fuc(a1-3)]GlcNAc
How it was run: as §1

[38] = biological target: Fuc(a1-2)Gal(b1-4)[Fuc(a1-3)]GlcNAc(b1-2)Man(a1-3)[Fuc(a1-2)Gal(b1-4)[Fuc(a1-3)]GlcNAc(b1-2)Man(a1-6)]Man(b1-4)GlcNAc(b1-4)[Fuc(a1-6)]GlcNAc
How it was run: as §1

[39] = biological target: Fuc(a1-2)Gal(b1-4)[Fuc(a1-3)]GlcNAc(b1-2)[Fuc(a1-2)Gal(b1-4)[Fuc(a1-3)]GlcNAc(b1-4)]Man(a1-3)[Fuc(a1-2)Gal(b1-4)[Fuc(a1-3)]GlcNAc(b1-2)Man(a1-6)]Man(b1-4)GlcNAc(b1-4)GlcNAc
How it was run: as §1

[40] = biological target: Fuc(a1-2)Gal(b1-4)[Fuc(a1-3)]GlcNAc(b1-3)Gal(b1-4)[Fuc(a1-3)]GlcNAc
How it was run: as §1

[41] = biological target: Fuc(a1-2)Gal(b1-4)[Fuc(a1-3)]GlcNAc(b1-3)Gal(b1-4)[Fuc(a1-3)]GlcNAc(b1-3)Gal(b1-4)[Fuc(a1-3)]GlcNAc
How it was run: as §1

[42] = biological target: Fuc(a1-2)Gal(b1-4)[Fuc(a1-3)]GlcNAc(b1-3)GalNAc
How it was run: as §1

[43] = biological target: Fuc(a1-2)Gal(b1-4)[Fuc(a1-3)]GlcNAc(b1-3)[Neu5Ac(a2-6)Gal(b1-4)GlcNAc(b1-6)]Gal(b1-4)Glc
How it was run: as §1

[44] = biological target: Fuc(a1-2)Gal3S(b1-4)GlcNAc
How it was run: as §1

[45] = biological target: Fuc(a1-2)Gal6S(b1-3)GlcNAc
How it was run: as §1

B1: Clec18C (Homo sapiens) (protein)
chain: MLHPETSPGRGHLLAVLLALLGTAWAEVWPPQLQEQAPMAGALNRKESFLLLSLHNRLRSWVQPPAADMRRLDWSDSLAQLAQARAALCGTPTPSLASGLWRTLQVGWNMQLLPAGLVSFVEVVSLWFAEGQRYSHAAGECARNATCTHYTQLVWATSSQLGCGRHLCSAGQAAIEAFVCAYSPRGNWEVNGKTIVPYKKGAWCSLCTASVSGCFKAWDHAGGLCEVPRNPCRMSCQNHGRLNISTCHCHCPPGYTGRYCQVRCSLQCVHGRLREEECSCVCDIGYGGAQCATKVHFPFHTCDLRIDGDCFMVSSEADTYYRARMKCQRKGGVLAQIKSQKVQDILAFYLGRLETTNEVIDSDFETRNFWIGLTYKTAKDSFRWATGEHQAFTSFAFGQPDNHGFGNCVELQASAAFNWNNQRCKTRNRYICQFAQEHISRWGPGS
[1]
  glycan array binding signal (z-score): -0.469
[2]
  glycan array binding signal (z-score): 0.239
[3]
  glycan array binding signal (z-score): -0.445
[4]
  glycan array binding signal (z-score): -0.618
[5]
  glycan array binding signal (z-score): -0.019
[6]
  glycan array binding signal (z-score): -0.588
[7]
  glycan array binding signal (z-score): 0.857
[8]
  glycan array binding signal (z-score): -0.404
[9]
  glycan array binding signal (z-score): 3.46
[10]
  glycan array binding signal (z-score): -0.43
[11]
  glycan array binding signal (z-score): -0.182
[12]
  glycan array binding signal (z-score): -0.529
[13]
  glycan array binding signal (z-score): 1.73
[14]
  glycan array binding signal (z-score): -0.165
[15]
  glycan array binding signal (z-score): -0.242
[16]
  glycan array binding signal (z-score): 2.16
[17]
  glycan array binding signal (z-score): -0.598
[18]
  glycan array binding signal (z-score): 0.055
[19]
  glycan array binding signal (z-score): -0.486
[20]
  glycan array binding signal (z-score): 1.43
[21]
  glycan array binding signal (z-score): -0.503
[22]
  glycan array binding signal (z-score): -0.572
[23]
  glycan array binding signal (z-score): -0.46
[24]
  glycan array binding signal (z-score): -0.439
[25]
  glycan array binding signal (z-score): -0.438
[26]
  glycan array binding signal (z-score): -0.195
[27]
  glycan array binding signal (z-score): -0.304
[28]
  glycan array binding signal (z-score): -0.496
[29]
  glycan array binding signal (z-score): -0.426
[30]
  glycan array binding signal (z-score): 0.124
[31]
  glycan array binding signal (z-score): 0.393
[32]
  glycan array binding signal (z-score): 3.79
[33]
  glycan array binding signal (z-score): -0.48
[34]
  glycan array binding signal (z-score): 2.35
[35]
  glycan array binding signal (z-score): 0.162
[36]
  glycan array binding signal (z-score): 0.931
[37]
  glycan array binding signal (z-score): -0.492
[38]
  glycan array binding signal (z-score): -0.193
[39]
  glycan array binding signal (z-score): -0.419
[40]
  glycan array binding signal (z-score): -0.533
[41]
  glycan array binding signal (z-score): -0.579
[42]
  glycan array binding signal (z-score): 0.011
[43]
  glycan array binding signal (z-score): 0.205
[44]
  glycan array binding signal (z-score): 1.21
[45]
  glycan array binding signal (z-score): 0.717

From the supplement of paper PMC8728848
